# Experimental data: PubChem BioAssay AID624296 (National Center for Advancing Translational Sciences (NCATS), 2012)
# The campaign covered roughly 350,000 compounds. About 9,900 (2.8%) were called active. The shares of active, inactive and inconclusive entries below differ from those in the screen. Calls come from the whole dose curve; as a rule, active = well fitted activation curve with a large enough effect; inconclusive = small, poorly fitted or top-dose-only effect; inactive = no such curve, though single readings can be large or run the other way. No potency is given beside an inconclusive call; the fits are too rough.
# Assay: A quantitative high throughput screen for small molecules that induce DNA re-replication in MCF 10a normal breast cells. For activity, positive = re-replication: % of control where 0% means no effect. Note: nearly all actives have a fitted effect of over 50% in size.
# Conditions: MCF 10A DNA re-replication, Hoechst nuclear intensity, 48 h; activity, positive = re-replication: at 46.1 µM (top of the series)
# Potency is the fitted concentration of half-maximal effect; tags give direction and shape of the fitted curve.
SMILES,Potency,"activity, positive = re-replication"
Cc1ccc2nc(NC(=O)C3CCN(c4ncnc5sc(C)c(C)c45)CC3)sc2c1,active: 23.1 µM,–
O=C(COC(=O)c1n[nH]c2ccccc12)Nc1ccc(S(=O)(=O)N2CCCC2)cc1,"inconclusive [activator, single point]",–
O=C1CCCC/C1=C\Nc1ccc(O)cc1,"inconclusive [activator, single point]",–
Cc1cccc([N+](=O)[O-])c1NC(=O)CN(Cc1ccccc1)Cc1ccccc1,"inconclusive [activator, partial curve, poor fit]",–
Cc1cc(SC(C)C(=O)Nc2ncc(Cl)cc2Cl)nc2ccccc12 (stereo not given),"inconclusive [activator, partial curve]",–
CN(C)c1ccc(CNC(=O)CCS(=O)(=O)c2ccc3c(c2)n(C)c(=O)c(=O)n3C)cc1,–,inactive: 0.0131%
CCOC(=O)C(=CNc1cc(C(F)(F)F)ccc1N1CCOCC1)C(=O)OCC,–,inactive: 0.0919%
O=C(/C=C/N1CCN(Cc2ccccc2)CC1)C(F)(F)F,"inconclusive [activator, partial curve, poor fit]",–
CCCC(=O)NC(c1ccc(Cl)cc1)c1ccc2cccnc2c1O (stereo not given),"inconclusive [activator, partial curve, poor fit]",–
COc1ccccc1CNCC(=O)Nc1cc(S(=O)(=O)N2CCCCCC2)ccc1Cl,–,inactive: 6.39%
Cc1cccc(Nc2nc(-c3ccc(F)c(C)c3)cs2)n1,"inconclusive [activator, single point]",–
CCOc1ccc2[nH]c3c(N4CCC5(CC4)OCCO5)ncnc3c2c1,"inconclusive [activator, partial curve, poor fit]",–
C=CCNC(=S)N/N=C/c1ccc(N(CC)Cc2ccccc2)cc1,"inconclusive [activator, single point]",–
O=C(CN1CCCC1c1cccs1)Nc1cc(S(=O)(=O)N2CCCCC2)ccc1Cl (stereo not given),–,inactive: -6.65%
N#Cc1cccnc1N1CCN(C(=O)COCC(=O)O)CC1,–,inactive: 4.19%
CCOC(=O)c1c(NC(=O)Cn2c(C)nc3ccccc32)sc2c1CCC2,"inconclusive [activator, single point]",–
C=CCn1c(SCC(=O)Nc2ccccc2F)nc2ccccc2c1=O,"inconclusive [activator, partial curve, poor fit]",–
COc1ccccc1N1CCN(S(=O)(=O)c2c(C)sc3ncn(CC(=O)NCCN(C)C)c(=O)c23)CC1,"inconclusive [activator, single point]",–
COC(=O)C1=C(C)NC(=O)C1(NC(=O)c1ccncc1)C(F)(F)F (stereo not given),"inconclusive [activator, single point]",–
COc1cccc(CNc2nc3ccc(C)cc3n3cnnc23)c1,–,inactive: -2.07%
CCOC(=O)C1CCN(C(=O)C2CCN(S(=O)(=O)c3ccc4c(c3)CC(C)N4C(C)=O)CC2)CC1 (stereo not given),–,inactive: 0.711%
Cc1cc(OCC(=O)NCC(C)C)cc(C)c1Br,"inconclusive [activator, single point]",–
CCOC(=O)C(=O)NNc1cccc(C)c1C,active: 8.2 µM,–
O=C(CCN1C(=O)C2CCCCC2C1=O)Nc1nc(-c2ccc(F)c(F)c2)cs1 (stereo not given),"inconclusive [activator, single point]",–

SMILES,Potency,"activity, positive = re-replication"
CCOC(=O)C(=CNNc1cccc(Cl)c1)C(=O)OCC,"inconclusive [activator, single point]",–
O=C(c1ccco1)N1CCN(c2ncnc3scc(-c4ccc(F)cc4)c23)CC1,"inconclusive [activator, partial curve, poor fit]",–
O=C(N/N=C/c1ccc(O)c(O)c1)C1c2ccccc2Oc2ccccc21,"inconclusive [activator, partial curve, poor fit]",–
Cc1c(NC(=O)CSc2ccc(Cl)cc2)cccc1-c1nc2cc(Cl)ccc2o1,"inconclusive [activator, single point]",–
COc1cc(OC)cc(-c2nnc(NC(=O)CCS(=O)(=O)c3ccc(C)cc3)o2)c1,active: 4.61 µM,–
C=CCOc1ccc(C2C(C#N)=C(N)N(N(C)C)C3=C2C(=O)CCC3)cc1 (stereo not given),–,inactive: -7.47%
CCOCCn1c2ccccc2c2nc3ccccc3nc21,"inconclusive [activator, partial curve]",–
CCC(c1nnnn1Cc1ccco1)N(Cc1cc2cc(OC)ccc2[nH]c1=O)C1CCCCC1 (stereo not given),"inconclusive [activator, single point]",–
COc1ccc(C(=O)Nc2ccc(NC(=O)c3cccc(F)c3)cn2)cc1,"inconclusive [activator, single point]",–
COc1cc2ncnc(NCc3ccccc3)c2cc1OC,active: 6.51 µM,–
CCOC(=O)CN1C(=O)/C(=C/c2cccc(Br)c2)Oc2ccccc21,"inconclusive [activator, full curve]",–
CN(C)c1ccc(CSc2ccccc2)cc1,–,inactive: 0.453%
COc1ccc(CC(=O)N[C@@H]2c3ccccc3CC[C@@H]2OCc2ccccc2)cc1,"inconclusive [activator, full curve, poor fit]",–
CCN(CC)C(=O)c1sc2nc(-c3cccs3)cc(-c3ccc(Cl)cc3)c2c1N,"inconclusive [activator, partial curve, poor fit]",–
O=C(OCc1nnn(Cc2ccccc2)c1-c1c(COC(=O)c2ccccc2)nnn1Cc1ccccc1)c1ccccc1,"inconclusive [activator, single point]",–
O=C(Nc1cccc(-c2ccc(F)cc2)c1)C1CCCN(Cc2cccnc2)C1 (stereo not given),"inconclusive [activator, partial curve, poor fit]",–
COC(C/C=C/C(=O)[C@@H](C)OCc1ccccc1)OC,active: 18.4 µM,–
CN(C)CCNc1ccc2ncn3c4ccc(O)cc4c(=O)c1c23,"inconclusive [activator, partial curve, poor fit]",–
S=C(NCc1ccccn1)Nc1ccccc1,–,inactive: 8.94%
Cc1cccnc1CCNC(=O)c1ccc(OC2CCN(Cc3ccccn3)CC2)cc1,–,inactive: 2.69%
COc1cc(C(=O)Nc2ccc(S(=O)(=O)Nc3cnc4ccccc4n3)cc2)cc(OC)c1OC,"inconclusive [activator, single point]",–
Cc1ccc(C(=O)Nc2ccnc(-c3ccncc3)n2)cc1,–,inactive: -4.83%
COc1cccc(CNC(=O)CCC2CCCN(Cc3cc4ccccc4o3)C2)c1 (stereo not given),"inconclusive [activator, single point]",–
c1csc(COc2ccccc2CNC2CCCCC2)c1,–,inactive: 17.8%

SMILES,Potency,"activity, positive = re-replication"
O=S(=O)(c1ccc(Cl)cc1)N1CCc2ccccc21,–,inactive: 4.67%
CC1(C)Cc2ccccc2-c2nc(-c3ccccc3)oc(=O)c21,"inconclusive [activator, single point]",–
Cc1noc(/C=C/c2ccco2)c1S(=O)(=O)N1CCC(C(=O)N2CCc3ccccc3C2)CC1,active: 18.4 µM,–
COCCCn1c(C(=O)N2CCOCC2)cc2c(=O)n3ccccc3nc21,–,inactive: -8.51%
CCOC(=O)C1CCN(Cc2ccc(N(C)C)cc2)CC1,–,inactive: 1.11%
Cc1cn(CC(=O)NCCN2CCOCC2)c(=O)[nH]c1=O,"inconclusive [activator, full curve, poor fit]",–
Cc1noc(C)c1S(=O)(=O)Nc1c(C)n(C)n(-c2ccccc2)c1=O,"inconclusive [activator, single point]",–
Cc1ccc(S(=O)(=O)N2CCN(Cc3ccco3)CC2)c(C)c1,"inconclusive [activator, partial curve, poor fit]",–
COc1ccc(CN(C)C(=O)CC(c2ccccc2)c2ccccc2)cc1,"inconclusive [activator, single point]",–
CCOc1cc2[nH]c(=S)n(Cc3ccc(C(=O)NCCN(CC)CC)cc3)c(=O)c2cc1OCC,"inconclusive [activator, single point]",–
CCC1ON(c2ccccc2)C2c3nc4ccccc4n3CC12 (stereo not given),"inconclusive [activator, full curve, poor fit]",–
N=c1oc2ccc(Cl)cc2cc1C(=O)NC1CCCCCC1,–,inconclusive: -24.9% [activator]
CCOc1ccc(CNCc2ccccc2Cl)cc1,–,inactive: 22.9%
CCCOc1ccc(CN(CCC#N)C(=S)NC(=O)c2ccccc2)cc1,"inconclusive [activator, partial curve]",–
Cc1ccc(Nc2nc(-c3c(C)nc4ccccn34)cs2)cc1,"inconclusive [activator, full curve, poor fit]",–
Cc1ccc(/C=N/NC(=O)c2sccc2OCc2ccc(F)cc2)cc1,active: 6.51 µM,–
CCCN(CC1CC1)C(=S)Nc1ccc(Oc2ccccc2)cc1,"inconclusive [activator, single point]",–
O=C(CSC1=NS(=O)(=O)c2cc(F)ccc2N1)Nc1ccccc1,"inconclusive [activator, partial curve, poor fit]",–
CCC1Sc2ccc(S(=O)(=O)CCC(=O)Nc3cccc(Br)c3)cc2NC1=O (stereo not given),"inconclusive [activator, single point]",–
CCCCCC(=O)N/N=C(\C)c1ccc(Cl)cc1,–,inactive: 6.53%
O=C(CCc1nnc(CCCCc2ccccc2)o1)NCCCc1cccnc1,–,inactive: -2.22%
COc1ccc(C2c3cc4c(cc3OC(N3CCOCC3)C2C)OCO4)c(OC)c1 (stereo not given),active: 2.91 µM,–
